# Reference: the supplement of paper PMC11741623
# The other results are listed elsewhere or left out. Interaction screen of human proteins with wild-type SARS-CoV-2 proteins by split-DHFR complementation in yeast, 1 µg/mL methotrexate. Value = fitness of the pair (three or more lineages) minus that of the viral protein without a human partner, on a scale set by negative (0) and fused positive (1) controls, mean of up to three cultures; higher = more likely to interact. Active = false discovery rate below 0.05 (one-sided t-test) in at least one culture. Nearly all pairs are not hits, and differences among them are mostly noise (correlation between cultures about 0.3); most hits were seen in one culture only. Human sequences are the Swiss-Prot entries looked up by gene name; the clone may be another isoform. NSP2 values were corrected by the authors for a growth advantage. Listed are human proteins with a hit and a random twelfth of the others.
# B1: CEBPG, P53567 (protein)
# chain: MSKISQQNSTPGVNGISVIHTQAHASGLQQVPQLVPAGPGGGGKAVAPSKQSKKSSPMDRNSDEYRQRRERNNMAVKKSRLKSKQKAQDTLQRVNQLKEENERLEAKIKLLTKELSVLKDLFLEHAHNLADNVQSISTENTTADGDNAGQ
# B2: DCAF4L1, Q3SXM0 (protein)
# chain: MEAERLRLLEEEAKLKKVARMGFNASSMLRKSQLGFLNVTSYSRLANELRVSCMERKKVQIRSLDPSSLASDRFNFILASTNSDQLFVVNQVEVEGSKYGIISLRTLKIPSFHVYVLRNLYVPNRKVKSLCWASLNQLDSHVLLCFEGITDAPSCAVLLPASRFLSVHTRVNQPGMLCSFQIPEAWSCAWSLNTRAYHCFSAGLSQQVLLTSVATGHQQSFDTSSDVLAQQFASTAPLLFNGCRSGEIFAIDLRCRNRGKGWRATRLFHDSAVTSVQILQEEQCLMASDMTGKIKLWDLRATKCVRQYEGHVNESAYLPLHVHEEEGIVVAVGQDCYTRIWSLHDAHLLRTIPSPYSASEDDIPSVAFASRLGGIRGAAPGLLMAVRQDLYCFPFS
# B3: EPYC, Q99645 (protein)
# chain: MKTLAGLVLGLVIFDAAVTAPTLESINYDSETYDATLEDLDNLYNYENIPVDKVEIEIATVMPSGNRELLTPPPQPEKAQEEEEEEESTPRLIDGSSPQEPEFTGVLGPHTNEDFPTCLLCTCISTTVYCDDHELDAIPPLPKNTAYFYSRFNRIKKINKNDFASLSDLKRIDLTSNLISEIDEDAFRKLPQLRELVLRDNKIRQLPELPTTLTFIDISNNRLGRKGIKQEAFKDMYDLHHLYLTDNNLDHIPLPLPENLRALHLQNNNILEMHEDTFCNVKNLTYIRKALEDIRLDGNPINLSKTPQAYMCLPRLPVGSLV
# B4: FAM81B, Q96LP2 (protein)
# chain: MQLQFLGTLASSEKRKKSQRLFFKNIKSTKNKAGKASIMSSDTNVNKSASPTATAEEQPVEPDGPLPGSDNNQEKKVRLSPAKMSTKNSTDLVEYVDKSHAFLPIIPNTQRGQLEDRLNNQARTIAFLLEQAFRIKEDISACLQGTHGFRKEESLARKLLESHIQTITSIVKKLSQNIEILEDQIRARDQAATGTNFAVHEINIKHLQGVGDLRGRVARCDSSIVKLSGDIHLFRQEHRQIEKAIQEFVPALETLSKNLDMKVMQLLGKIETASSEQTSNLKMVQGDYRHEMNLLEFKFHSLSSNLYEEVENNKKWTENQFLKYRKDHLGHINECLKVLQEKLEKSENKMEEKLLQLSSKVENFINTQKQETQLSKVKHMENKLSKKMEQMEKQIWGELETMQNEYQSGFKSIHDSLSSLQQIQKTKMDLEKYKVQKDLKKLQRKIVELQEV
# B5: IER3IP1, Q9Y5U9 (protein)
# chain: MAFTLYSLLQAALLCVNAIAVLHEERFLKNIGWGTDQGIGGFGEEPGIKSQLMNLIRSVRTVMRVPLIIVNSIAIVLLLLFG
# B6: LRAT, O95237 (protein)
# chain: MKNPMLEVVSLLLEKLLLISNFTLFSSGAAGEDKGRNSFYETSSFHRGDVLEVPRTHLTHYGIYLGDNRVAHMMPDILLALTDDMGRTQKVVSNKRLILGVIVKVASIRVDTVEDFAYGANILVNHLDESLQKKALLNEEVARRAEKLLGFTPYSLLWNNCEHFVTYCRYGTPISPQSDKFCETVKIIIRDQRSVLASAVLGLASIVCTGLVSYTTLPAIFIPFFLWMAG
# Molecular target: SARS-CoV-2 NSP10
# Test: yeast fitness gain over the viral ORF with no human partner (scaled fitness); higher = more likely to interact
# Experimental: (§1)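 Split mouse DHFR complementation in pooled diploid yeast: human ORFeome clones carry one fragment and viral ORFs the other; barcoded lineages compete in 1 µg/mL methotrexate and fitness is read by barcode sequencing in up to three cultures.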
row,Binder,yeast fitness gain
1,B1,inactive: 0.0317
2,B2,inactive: 0.0331
3,B3,inactive: 0.0729
4,B4,inactive: 0.019
5,B5,inactive: 0.018
6,B6,inactive: 0.0952

# Molecular target: SARS-CoV-2 NSP13
# Test: as above
# Experimental: as §1
row,Binder,yeast fitness gain
1,B1,inactive: -0.184
2,B3,inactive: -0.108
3,B4,inactive: -0.0427
4,B5,inactive: 0.0337
5,B6,inactive: -0.104

# Molecular target: SARS-CoV-2 NSP8
# Test: as above
# Experimental: as §1
row,Binder,yeast fitness gain
1,B1,inactive: 0.00543
2,B6,inactive: -0.119

# Molecular target: SARS-CoV-2 ORF6
# Test: as above
# Experimental: as §1
row,Binder,yeast fitness gain
1,B1,inactive: -0.0566
2,B3,inactive: 0.0173
3,B4,inactive: -0.0754
4,B5,inactive: -0.0773
5,B6,inactive: 0.0312

# Molecular target: SARS-CoV-2 ORF7A
# Test: as above
# Experimental: as §1
row,Binder,yeast fitness gain
1,B1,inactive: -0.0454
2,B2,inactive: 0.0853
3,B3,inactive: -0.0414
4,B4,inactive: -0.0832

# Molecular target: SARS-CoV-2 ORF8
# Test: as above
# Experimental: as §1
row,Binder,yeast fitness gain
1,B1,inactive: -0.0813
2,B4,inactive: -5.7e-06
3,B5,inactive: 0.065
4,B6,inactive: -0.142

# Molecular target: SARS-CoV-2 ORF9B
# Test: as above
# Experimental: as §1
row,Binder,yeast fitness gain
1,B1,inactive: 0.00449
2,B2,inactive: 0.0354
3,B3,inactive: -0.00986
4,B4,inactive: -0.0187
5,B5,inactive: -0.135
6,B6,inactive: 0.0853

# Molecular target: SARS-CoV-2 S
# Test: as above
# Experimental: as §1
row,Binder,yeast fitness gain
1,B1,inactive: -0.198
2,B6,inactive: 0.0711

# Molecular target: SARS-CoV-2 NSP5
# Test: as above
# Experimental: as §1
row,Binder,yeast fitness gain
1,B2,inactive: 0.0281
2,B3,inactive: -0.00781
3,B4,inactive: 0.0459
4,B5,inactive: 0.00162
5,B6,inactive: 0.0124

# Molecular target: SARS-CoV-2 NSP6
# Test: as above
# Experimental: as §1
row,Binder,yeast fitness gain
1,B2,inactive: -0.0214
2,B4,inactive: -0.104

# Molecular target: SARS-CoV-2 NSP7
# Test: as above
# Experimental: as §1
row,Binder,yeast fitness gain
1,B2,inactive: 0.125
2,B5,inactive: -0.0281

# Molecular target: SARS-CoV-2 NSP12
# Test: as above
# Experimental: as §1
row,Binder,yeast fitness gain
1,B3,inactive: -0.0382
2,B4,inactive: -0.248
3,B5,inactive: -0.197
4,B6,inactive: -0.0574

# Molecular target: SARS-CoV-2 NSP2
# Test: as above
# Experimental: as §1
row,Binder,yeast fitness gain
1,B3,inactive: -0.18
2,B4,inactive: -0.279
3,B5,inactive: -0.0599

# Molecular target: SARS-CoV-2 NSP9
# Test: as above
# Experimental: as §1
row,Binder,yeast fitness gain
1,B3,inactive: 0.132
2,B5,inactive: 0.0413

# Molecular target: SARS-CoV-2 ORF3B
# Test: as above
# Experimental: as §1
row,Binder,yeast fitness gain
1,B3,inactive: 0.0144
2,B4,inactive: 0.0245
3,B5,inactive: -0.133

# Molecular target: SARS-CoV-2 ORF10
# Test: as above
# Experimental: as §1
row,Binder,yeast fitness gain
1,B4,inactive: -0.114
2,B6,inactive: -0.106

# Molecular target: SARS-CoV-2 ORF7B
# Test: as above
# Experimental: as §1
row,Binder,yeast fitness gain
1,B4,inactive: 0.105
2,B5,inactive: 0.0438
3,B6,inactive: 0.105

# Molecular target: SARS-CoV-2 NSP15
# Test: as above
# Experimental: as §1
row,Binder,yeast fitness gain
1,B5,inactive: -0.0591

# Molecular target: SARS-CoV-2 ORF9Bwu (the 73-codon ORF)
# Test: as above
# Experimental: as §1
row,Binder,yeast fitness gain
1,B5,inactive: -0.00962
